Data as given in PubChem BioAssay AID1508624 (National Center for Advancing Translational Sciences (NCATS), 2021).
The campaign covered roughly 48,000 compounds. About 120 (0.25%) were called active. Roughly 4% stayed inconclusive and do not appear here. Calls follow the shape of the dose curve; as a rule, active = well fitted activation curve with a large enough effect; inconclusive = small, poorly fitted or top-dose-only effect, or another doubt; inactive = no such curve, though single readings can be large or run the other way. The list shows a part of the results.

Test: Primary qHTS for Identification of Small Molecule Activators of Huntingtin-Antisense Promoter Activity; also: nearly all actives have a fitted effect of over 55% in size
Conditions: HEK293 HTT-AS promoter firefly luciferase reporter, 24 h; series mostly up to 57.5 µM; activity change, positive = activation: at the top concentration
Summary of the method: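 Luminescence was read after Dual-Glo reagent and a 10 min room-temperature incubation. Values were normalized to vehicle (0% activity) and zero RLU (-100% activity). Reporter HEK293 cells had been exposed to compounds (up to 57.5 uM final) for 24 h.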

Activity change, positive = activation, inactive:
COc1ccc(NC(=O)CN(C)S(=O)(=O)c2cnc[nH]2)cc1 -5.69%
CCOc1ccc(NC(=O)CSc2nc3ccccc3c(=O)n2CCC(=O)NC2CCCCC2)cc1 -7.32%
O=C(COC(=O)c1cc(-c2cccs2)nc2ccccc12)c1ccc(Cl)cc1 14.9%
COc1cc(C(=O)NCCSc2c(C)[nH]c3ccccc23)cc(OC)c1OC -15.1%
O=C(NC1CC(=O)N(c2ccc(Cl)cc2)C1)C1CCCCC1 (stereo not drawn) -15.4%
COc1cccc(NS(=O)(=O)c2cc(-c3cnc(C4CC4)o3)ccc2C)c1 -45.1%
COc1ccc(-c2noc(C3CC(=O)N(c4ccc5c(c4)OCCO5)C3)n2)c(OC)c1 (stereo not drawn) -4.42%
O=C(O)CSc1nc2ccccc2nc1N1CCCCC1 -25.4%
COc1ccc(CCNC(=O)CSc2cn(CCNC(=O)c3ccc(OC)c(OC)c3)c3ccccc23)cc1OC -31.4%
COC(=O)c1c(NC(=O)/C(C#N)=C/c2ccc(OC)cc2)sc2c1C(C(=O)OC)CC2 (stereo not drawn) -10.1%
CCc1ccccc1NC(=O)[C@H](Cc1ccccc1)N1Cc2ccccc2C1=O -6.2%
CCc1ccc(-n2c(=O)c3ccc(C(=O)NCCc4ccccc4)cc3n(CC(N)=O)c2=O)cc1 -27.2%
CCCCOc1ccc(C(=O)NCC2(N3CCN(C)CC3)CCCCC2)cc1 -10.5%
CCS(=O)(=O)N1CCc2cc(C(=O)Nc3ccc(C)c(Cl)c3)ccc21 12.2%
O=C(Nc1nnc(S(=O)(=O)N2CCOCC2)s1)c1cccc(F)c1 9.33%
CCOC(=O)C1CCN(c2nc(-c3ccc(Br)cc3)nc3ccccc23)CC1 -37%
CC(=O)c1cccc(NC(=O)C(Cc2ccccc2)NS(=O)(=O)c2ccc(Br)s2)c1 (stereo not drawn) -9.55%
O=C(Nc1ccc(Cl)cc1)N1CCC(CN2CCCC2)CC1 -8.48%
Cc1cccc(CCNC(=O)Cn2ncc3c(=O)oc4ccccc4c32)c1 1.55%
Cc1c2cnn(-c3ccccc3)c(=O)c2c(C)n1CC(=O)NCc1ccccc1Br -13.3%
Cc1ccc2c(c1)C(c1ccccc1)N(C(=O)c1ccc(OC(C)C)cc1)CC(=O)N2 (stereo not drawn) -7.03%
N[C@@]1(C(=O)O)CS(=O)(=O)[C@H]2[C@H](C(=O)O)[C@H]21 -31.2%
COc1ccc(Cn2cc(C(=O)c3ccc(OC)cc3)c(=O)c3cc4c(cc32)OCCO4)cc1 -4.3%
CCC(=O)O[C@]1(C(=O)CO)CC[C@H]2[C@@H]3CCC4=CC(=O)CC[C@]4(C)[C@@H]3CC[C@@]21C 6.6%
COc1ccc(OC)c(NC(=O)c2cn3c4c(ccc(Cl)c4c2=O)OC(C)C3)c1 (stereo not drawn) -8.41%
COc1ccc(CC(=O)NCc2ccc3c(c2)CCN3C(C)=O)cc1OC -16.9%
CCN(CC)S(=O)(=O)c1ccc2c(c1)c(=O)c(C(=O)NCc1ccc(Cl)cc1)cn2C -6.14%
CCOC(=O)C1CCN(C(=O)c2ccc3c(c2)sc2nc(-c4ccccc4)cn23)CC1 -3.07%
COc1cccc(CNC(=O)C2Cc3cc(S(=O)(=O)N4CCCCCC4)ccc3N2C(C)=O)c1 (stereo not drawn) 5.52%
Cc1c(C(=O)N(C)C)sc2c1c(=O)n(-c1ccc(F)cc1)c(=O)n2Cc1cc(=O)n2ccccc2n1 -3.41%
Nc1c(C(=O)Nc2ccc(Cl)c(C(F)(F)F)c2)sc2nc(-c3ccncc3)ccc12 -32.4%
COc1ccc(C(=O)COC(=O)c2cc(-c3ccccc3)nc3c(C)cccc23)cc1 0.391% [at 11.5 µM, percent change from vehicle, -100% = no light]
O=C1CCc2cc(S(=O)(=O)NCc3ccc(F)cc3)cc3c2N1CC3 -3.42%
Cc1nc2c(-c3ccccc3)c(C)nn2c(C)c1CCC(=O)N1CCN(c2ccccc2)CC1 -13.1%
CCC(=O)N1CCc2cc(Br)cc(S(=O)(=O)N3CCCC(C(=O)NCc4cccc(OC)c4)C3)c21 (stereo not drawn) -16.9%
CC(=O)N1CCCc2ccc(NS(=O)(=O)c3ccc(C)c(C)c3)cc21 14%
Cn1nc(C(=O)N2CCN(c3cccc(Cl)c3)CC2)c2c1-c1ccccc1S(=O)(=O)C2 -8.39%
CCc1cc2c(cc3c(=O)n(CC(=O)N4CCC(C)CC4)nc(CC)n32)s1 -14.7%
NCCCNCCSP(=O)(O)O -2.87% [at 11.5 µM, percent change from vehicle, -100% = no light]
CCCCCn1c(NCc2ccccc2OC)nc2ccccc21 -59%
CCCS(=O)(=O)c1ncc(Cl)c(C(=O)Nc2c(C(=O)c3ccccc3)oc3ccccc23)n1 -16.7%
CC(=O)c1cccc(NC(=O)CCc2c(C)nc3c(-c4ccc(F)cc4)c(C)nn3c2C)c1 -20%
Cc1ccc2c(=O)c3cccc(CC(=O)O)c3oc2c1C -33.1%
O=C(Nc1ccccc1)N1CCN(C(=O)c2nsc3ccccc23)CC1 -25.1%
CCCc1nc2sc3c(N4CCCCC4)ncnc3c2c2c1CCCC2 -6.14%
COc1ccc(OC)c(NC(=O)Cn2cc(S(=O)(=O)c3ccccc3)c(=O)c3cc(C)ccc32)c1 3.13%
Cc1ccc(CCNC(=O)CCn2c(=O)c3cccn3c3ccc(F)cc32)cc1 -23.7%
Cc1cc(=O)n2nc(N3CCC(C(=O)Nc4ccc(C(C)C)cc4)CC3)sc2n1 -21.5%
COc1c(Cl)cc(Cl)cc1/C=C(\C#N)c1nc2ccccc2[nH]1 -6.41%
CCN(CCCNC(=O)c1nn(-c2ccc(C)cc2)c(=O)c2c1c1ccccc1n2C)c1ccccc1 10.7%
COc1ccc(C(=O)Nc2ccc(-c3cc4ccccc4oc3=O)c(C)c2)cc1Br -28.9%
Cc1ccc(C)c(N2CCN(C(=O)CCCn3ncn4c(cc5occc54)c3=O)CC2)c1 -32.7%
COc1cccc(CNC(=O)CCS(=O)(=O)c2cc3c(cc2C)NC(=O)CO3)c1 -5.69%
CCOc1ccc(CNC(=O)CCn2nc(C)c3c(C)n(-c4ccccc4)nc3c2=O)cc1 -19.2%
CCc1ccc(-n2c(=O)c3c(C)c(C(=O)N(C)C)sc3n(Cc3cccc(C)c3)c2=O)cc1 2.54%
CN(C)c1ccc(CNC(=O)CCCN2C(=O)CCn3nc(-c4cccn4C)cc32)cc1 7.94%
Cc1ccc(-n2c(=O)c3c4c(sc3n(Cc3ccccc3F)c2=O)CCC4)cc1C -7.97%
Cc1nc(-c2ccc(Cl)cc2)sc1CCNC(=O)c1ccco1 27.2%
Cc1ccc(O)c(-c2ccnc3cc(-c4ccc(Cl)cc4)nn23)c1 -15.3%
COc1cc(-c2nc3sccn3c2Nc2cccc(C)c2)ccc1O -17.8%
Cc1coc2cc3oc(=O)c(CC(=O)NCc4ccc(F)cc4)c(C)c3cc12 -14.2%
Oc1ccccc1-c1nc(/C=C/c2ccccc2Cl)no1 -36.3%
Cc1ccc(Cn2c(=O)n(Cc3nc(-c4ccccc4)no3)c(=O)c3cc4c(cc32)OCO4)cc1 -18.1%
COc1ccccc1OCCCn1c(C2CC(=O)N(c3ccccc3Cl)C2)nc2ccccc21 (stereo not drawn) -19.1%
COc1ccc(C(=O)Nc2ccc3nc(SCc4ccc(C)cc4)sc3c2)cc1 -19.8%
CCN(CCCNC(=O)c1cc2c(=O)[nH]c3ccccc3c2s1)c1ccccc1 -20.5%
CCC1CCCCN1S(=O)(=O)c1ccc(NC(=O)c2cc(=O)c3ccccc3o2)cc1 (stereo not drawn) -17.8%
O=S(=O)(c1ccc(-n2cnnn2)cc1)N1CCN(c2ccccc2F)CC1 -21.9%
O=C(Nc1nc(-c2ccc(Br)cc2)ns1)c1ccc(F)cc1 -18.2%
CCCCOc1ccc(C2c3c(-c4ccccc4O)n[nH]c3C(=O)N2Cc2ccncc2)cc1OC (stereo not drawn) -30.8%
CC(=O)c1cccc(NC(=O)Cn2c(SCC(=O)Nc3ccc(F)cc3)nc3ccccc32)c1 -22.4%
CCC(=C(c1ccc(O)cc1)c1ccc(OCCNC)cc1)c1ccccc1 -28.1%
Cc1c2cnn(CC(=O)NCc3ccccc3)c(=O)c2c(C)n1Cc1cccc(Cl)c1 -34.9%
COc1ccc(-c2c(C#N)c(SCC(=O)Nc3ccccc3C)nc(C)c2C(=O)Nc2ccccc2)cc1OC -24.3%
COCCCNC(=O)CSc1nc(-c2cccc(F)c2)[nH]c1-c1ccccc1 -24%
O=C(CN1CCN(Cc2ccccc2Cl)C1=O)NCc1ccccc1Cl -14.9%
N#C/C(=C\c1ccc(Cl)cc1)C(=O)NCC1CCCO1 (stereo not drawn) -5.2%
Cn1cc(S(=O)(=O)c2ccccc2)c(=O)c2cc(F)c(N3CCOCC3)cc21 -4.76%
COc1ccc(CCN2C(=O)N(c3ccc(F)cc3)C(=O)C2CC(=O)Nc2ccccc2)cc1 (stereo not drawn) 0%
O=C(CCn1c(=O)c2cccn2c2ccc(F)cc21)NCc1ccccc1F -5.35%
Cc1ccc(NC(=O)CSc2nc(-c3ccc(F)cc3)cc(C(F)(F)F)c2C#N)cc1 -4.31%
Cc1cccc(NC(=O)Cn2c(=O)n(Cc3ccc(C(=O)NCc4ccc5c(c4)OCO5)cc3)c(=O)c3ccccc32)c1 -12.6%
CCNC(=O)CC1C(=O)N(c2ccccc2)C(=O)N1Cc1ccc(F)cc1 (stereo not drawn) 12.6%
COc1ccc(NC(=O)Cn2c(=O)oc3cc(S(=O)(=O)NC(C)C)ccc32)cc1OC -8.95%
CCOc1ccc(C(=O)c2cn(CC(=O)Nc3cc(OC)cc(OC)c3)c3ccc(F)cc3c2=O)cc1 -48.4%
Cc1ccccc1Cn1c(CCCNC(=O)C2CCCCC2)nc2ccccc21 -26%
COc1ccc(S(=O)(=O)N(Cc2nc(-c3cccc(C)c3)no2)C2CCCCC2)cc1 -19.8%
Cc1ccccc1Cn1c(SCc2ccc(C(=O)NCc3cccs3)cc2)nc2ccncc21 -7.76%
Cc1cccc(OCc2nnc(SCC(=O)Nc3ccc(C)cc3C)o2)c1 -17.5%
COc1ccccc1N1CCN(S(=O)(=O)c2ccc3c(c2)oc(=O)n3C)CC1 -13.4%
CCCSCCCNC(=O)C1CCN(C(=O)c2cc3sccc3n2C)CC1 -30.5%
Cc1nnc(N2CCC(C(=O)NC(C)C)CC2)c2nn(-c3ccc(Cl)cc3)c(C)c12 -5.35%
Cc1ccc2nc(Cl)c3cc(C(=O)N(C)C4CCCCC4)sc3c2c1 -2.82%
